Laboratory results: ChEMBL document CHEMBL4888484, “Replenishing the malaria drug discovery pipeline: Screening and hit evaluation of the MMV Hit Generation Library 1 (HGL1) against asexual blood stage Plasmodium falciparum ,using a nano luciferase reporter read-out” (2022)
The whole screen tested about 150,000 compounds, of which about 540 (0.36%) showed an effect of 50% or more. This is one part of the list.

system: Plasmodium falciparum; assay: Primary screen in NF54 nanoGlo assay, in single point, at 2uM, 72h; a lower Z score goes with more inhibition; assay type: functional, Erythrocyte; settings: timepoint 72 hour

SMILES | % Inhibition | Z score
CC(C)(C)c1cn2nc(N3CC[C@H](N4CCCC4)C3)sc2n1 | -3% | 0.46
CCC(C)NC(=O)C(NC(=O)c1cccc(C)c1)C1CCN(C(=O)COC)CC1 (centres undefined) | -6% | 0.59
CCC[C@H]1CCCN1Cc1cnc(N(C)CC(=O)O)nc1 | 0% | -0.04
O=c1c2ccncc2ncn1[C@H]1CCCc2ccccc21 | -14% | 2.18
CCOc1ccc([C@@H]2CC(c3ccc(C)cc3C)=NN2C(=O)CN2CCOCC2)cc1 | -16% | 1.55
C[C@@H](C(=O)O)N(Cc1cccc(F)c1)Cc1cn(C)nn1 | 10% | -1.35
COc1cccc(CNC2CC2)c1OCc1ccc(C)cc1 | -1% | 0.08
CC(=O)N1N=C(c2c(F)cccc2Cl)O[C@H]1COc1ccc(C(C)(C)C)cc1 | -14% | 1.77
O=c1ccccn1CCCc1noc(NCC2(c3cccc(F)c3)CC2)n1 | 5% | -0.67
Cc1nccn1CCNC(=O)[C@H]1CCN(c2cnn(Cc3ccccc3)c(=O)c2)C1 | -9% | 1.34
CN(C)C(=O)c1cncc(NC[C@@]2(C)CCCO2)n1 | -4% | 0.77
c1ccc(-c2csc(NCCc3ccccn3)n2)cc1 | -6% | 0.71
CCn1cc([C@H](CNC(=O)c2ccccc2)N2CCC(c3ccccc3)=N2)c(C)n1 | -5% | 0.73
CN(C(=O)CC(C)(C)c1ccccc1)S(C)(=O)=O | -1% | 0.21
CC(C)CN1CC[C@H](c2nc3ccccc3o2)C1 | 29% | -3.28
O=C(CC1CCCCCC1)N1CCC(N2CCCS2(=O)=O)CC1 | -5% | 0.77
CN(CC[C@H]1CCCO1)C(=O)c1c[nH]nn1 | -6% | 0.81
COc1ccc2nc(O)c(CCC(=O)N3CCCC3)cc2c1 | -20% | 3.74
O=C(NCc1cn(-c2ccsc2)nn1)NC1CCCCC1 | 6% | -0.95
O=C(NCCCc1nccs1)[C@@H]1[C@H]2[C@@H]3CC[C@@H](C3)[C@@H]12 | -6% | 0.83
CN(C)c1ncc2c(n1)CCC[C@@H]2NC1CCCC1 | -7% | 0.82

SMILES | % Inhibition | Z score
COc1ccc(CN(C)C(=O)NCc2nnc([C@@H]3CCCO3)[nH]2)cc1C | 1% | -0.14
Cc1nc([C@@H]2CCCCCN2C(=O)c2cccc(CN(C)C)c2)no1 | 0% | -0.03
COc1ccccc1-c1nc(NCCN(C)C)nc2nn(-c3ccc(Cl)cc3)c(N)c12 | 0% | 0.02
O[C@@]1(Cc2cccc(Cl)c2)CCN(Cc2n[nH]c3c2COCC3)C1 | -4% | 0.62
O=C(N[C@@H](CO)c1cc(F)c(F)c(F)c1)c1ncccc1O | -3% | 0.24
O=C(CN1CCN(Cc2ccc3c(c2)CCO3)CC1)Nc1nc2ccccc2s1 | 5% | -1
CC(C)n1ncc2cc(NS(=O)(=O)c3ccc(S(C)(=O)=O)cc3)cnc21 | -12% | 1.57
Cc1ccc([C@H](CNC(=O)Nc2cccs2)OCCO)cc1 | 0% | -0.06
COc1cc2c(cc1OC)C1=C[C@@](O)(C(F)(F)F)C(=O)N1C(C)(C)C2 | 3% | -0.45
N#Cc1cccc(CN2C[C@@H](Oc3ccccc3)C[C@H]2C(N)=O)c1 | -12% | 1.52
CCn1cc(CNc2cccnc2)c2ccccc21 | 2% | -0.27
O=C(c1ccccc1Cl)N1CCC2(CC1)N[C@@H](Cc1ccccc1)C(=O)N2CCc1ccccn1 | -9% | 0.82
COc1ccc(C(=O)N(CC(=O)N(Cc2cccn2Cc2ccc(Br)cc2)C2CCCCC2)C(C)C)c(OC)c1 | -11% | 1.61
O=C(CCc1ccc2c(c1)CCO2)ON1C(=O)CCC1=O | -18% | 2.2
Cc1cc(-c2ccccc2)nc2sc(-c3ccccc3)c([O-])[n+]12 | 32% | -4.69
COCC(=O)N(C)[C@@H](C)C1=CCCN(Cc2csc(C)n2)C1 | -2% | 0.44
O=C(O)c1ccc(CN2CCC[C@H]2Cn2ccnn2)cc1Cl | -3% | 0.52
CC[C@H]1COCCN1Cc1cc(Cl)c(OC)cc1OC | -4% | 0.46
CS(=O)(=O)NCC[C@H]1CCCN(Cc2ccc3nonc3c2)C1 | -7% | 1.01
Cc1cc(OCC(=O)C(C)(C)C)ccc1C#N | -4% | 0.78
Cn1c(C(=O)NCc2cccc(F)c2)cc2ccncc21 | 1% | -0.15
